Laboratory results reported in the supplement of paper PMC12632987.
Over roughly 4,500 sequences, “median log2 fold change of GCK-ALFA target abundance (FLAG IP / Myc IP barcode read proportion)” has its median near 0.078; the lowest 2% begin near -0.6. Some of the results follow.

B1: GBRAP_26_5463 (protein)
chain: MDEAFRAALDAVDAAAATLPNPNAAAAVTAEAATVLEELEEAIEAGEDIAAAVAAARDELLAAARAIGEEEGLPAATIAAMEATLTAIFDALEAALKAAA
B2: GBRAP_128_3589 (protein)
chain: SVEEVREWTRAQLEAMKTADAAERRAIAEALADRFLTLTPEEREAMAATIEELLPELTAEQLDILADAFRAARPRADPETANLLADIEVAALNEAEEKEE
B3: GBRAP_128_3516 (protein)
chain: STAAAVARVRALMAAIAAASPAEAAALTREVAALLAAADPATREAMVDEFIALLPRLSREHLETVADTLRALRPAADPDLANLLAEVEVEALNEALEKEE
B4: GBRAP_26_5483 (protein)
chain: REREILDELEAKVKAILADEPAEVRAAVVAEAIDALIEFAEVVEANINDEEKIEKAKKEALEEMRKFLEDLGIPEDKREKVVKALAEALEKVEKAIKEEA
B5: GBRAP_95_7027 (protein)
chain: EDDELAYETDVEVLETYVELGDEERAREAARRAVETAKKLGWPKPPESISLEAAKLLVEEAVRYYTEEDAKKLTEAILSVIKNEEDKKEILEHLEKLLKE
B6: GBRAP_64_6479 (protein)
chain: NEEIEELLEELLEAARRLLALFERENPELAPEAQEIVDLLEEAKTASLEERLDLVLEVTDRLHALLRDPRVTPEQRDALLEALDLAMALAALLAEEVEKE
B7: GBRAP_177_5014 (protein)
chain: LTLEELRALIADPNTTAKEAFEALKEAAPAITAEEALELLAEIVRTKPLDEEAYKAAAEAILTLSRVQGLTLAEAVGYLIEHVEAEKVEKILEAIAEVEE
B8: GBRAP_83_6899 (protein)
chain: KEEIAIATPADKIEEAVDAAIDLSKEEGYEVSLEILATKEELEKVKKGVERLAKAKIETEVTIYLYGATKEEAEELEKELKEIAKKYGANIKIEVILIEP
B9: GBRAP_128_3340 (protein)
chain: INEEKLKKVEKLVKEMIKADKEEAKKLAKELMELLVELSLEEVEKAAEIIKKYLPKLSAEHLEILADELREYRPKFSPEKALIVADLEVEALNEAVEKEE
B10: GBRAP_95_7060 (protein)
chain: DEDKEILLAILDTAVDLAEAGFDDQAARAIAAAADLLLELGGPEIDLDVDPETALRLARLAAETLDAERAQAVVDLLGRATGDPATAAEMRAILAAAQAK
B11: GBRAP_137_3636 (protein)
chain: PNVTITTKTEDDLVEINIEFDDPELAEEVAELIEDVAHKHGALALSIEINEDGTLDATIWVPKEKAQALLDALIKALKEKFNATVTVIDEDTGEVKTIKA
B12: GBRAP_95_7031 (protein)
chain: DDDELAAESLVEVLETYIDLGEEEKAREAARRLVLHMKESGFPKLPKGISLEAAKLIVEEAIRLLNKEDAEKLFEVVLESIEKEEDKEEVKKYYEEELKK
B13: GBRAP_55_6436 (protein)
chain: SEDEELDKEASESMMEVAAGLVEDPEAMERIIKRMAKELEGKKIYITAEALSLLETDEEKEAFLTAVVKAAKENKKIKGIELIDVSEEDKELLEKAKKEV
B14: GBRAP_128_3328 (protein)
chain: MNEERIEEAFELIEKIVKADVETAKELTRELAKLMQTLTPEERDIVVEKFEEEAKKLDAEKLDAIADTLEELQPELDPETALYANEMRVEALNLAVEKEE
B15: GBRAP_125_3089 (protein)
chain: SMEELKEALKLLALALGFSEEDAEEAAEIAANSSVKGTLYAIFKAEGWEELADLVEKLTEEQAKEVLKELAKKIKENPDLTKEEVIEEAKKLIKEALAKA
B16: GBRAP_95_7070 (protein)
chain: SEEQEIADALADTLALYLEAGLLDEAARLLVDLAEEAKENPDLKVEFPATPEELRRGLEHLAEIRPREEAIEVAEILAKHAADPEHRRALEETAERFRAE
B17: GBRAP_11_2761 (protein)
chain: KKEKLLRLAELAEEAAELVDELLKEGVDNEELLKKLEEKLKELREETLKINDEALIKDVEIAEELFKKLLEDPENAEEYAKELRAQLRVLSGDYLLEAEE
B18: GBRAP_160_4486 (protein)
chain: MEKVEEAKKEVRELIELAVEAIKESPPEQKLPIARAYAGEIAMTVYEHGLVDDEEFEELLELAERKMREMVEASERGPEELEREAERLREEIERFIEEKS
B19: GBRAP_184_5204 (protein)
chain: EVKEFTIEFENKEELKEKLEKLKEEVKGFKGDLYIHIIAKEITKEMAELILETLKELKEKGWVKSITVLIEGKVSEEVLDLLLEKSKEIGVKVVIALEEE
B20: GBRAP_117_2604 (protein)
chain: MSKLEKAKELAKKLVELIRESLELEKELSEEERKKLREKTLKEATKIVKEMLKLVDVDTLEELIAEAMKDLTPEERVKAYILYEEALAEALEERKEEEEE
B21: GBRAP_160_4191 (protein)
chain: MEEVEKLIKEIKEIAEEAIELIEGQSYEERLVIVEGAFGQIIMLVMESDVVSDEAEEKIAEIADEAVEYLRANPELTEEEIKELIKKATEEIIEVIKKYS
B22: GBRAP_150_3897 (protein)
chain: NLEEIEIIADSTADILDLMIDSGKYNVATLKTYLKAVKEEAKEADEEIKKKLKEVADAIAKLIALIEAGADPAEIKAAAKEAADLAKELAEYTEKKIEEE
B23: GBRAP_11_2723 (protein)
chain: KKKVLEELAKKAEKLAEKLEKLIKEGPTKEELEKLLKEAEALAEEAKKAGVPESVVETLKEAAELIKKAIKDPKTQKEYLKEALAALKVAAGQLLLEAEE
B24: GBRAP_52_6147 (protein)
chain: MKEEAKKIADEMIEIAKNGTEEELEKYAEEVVKTKSLELLKEIAAVLGEKSVESDEEMSEIYEKVIEVLAKAAEKAGYEDAEVDDILAAFARAAVEAEQK
B25: GBRAP_128_3587 (protein)
chain: SVEEVRERTRALMAAMTKADAATAAALARELAEEFTTLSLEEARAAAEVILEELPKLTAEHLDILADALRAALPRMSPEKANLAADVEVAALNQAEEKEE
B26: GBRAP_184_5302 (protein)
chain: AVEEVVIEADTAEAAIAALRAAAARARAAGVKLRVTLFLKNVSVEGFRRVMALLRELREQGVVESATVVLENDKSEEEIDEFVELADEAGVRLVIALPDE
B27: GBRAP_11_2651 (protein)
chain: EKEKLKKGAELARDAAATADALIAEGTDNAALQAELTAKLNELAELVKKHASPALKSDVDVAVELWKEFLADPANATAYAQELRAALRVLEGDFLLEIEE
B28: GBRAP_160_4104 (protein)
chain: AAGLAALEADFQAVFDEVLALYDEISKEELVNFYDVELSAVILEARDELGLSDETVDALLAVRDEAAEELKANYDKSREEIKAILDAALARMRAVLAAHA
B29: GBRAP_95_7026 (protein)
chain: EDDQLLVDSLTEVLETYVDLGDEERAREAARRLVRALRENGILPLPKSISVEAAKLILEVALEELDLEELEALAKQLIEATKDEEVRKYAEAKIAEKRAR

target: GABARAP, O95166; assay: median log2 fold change of GCK-ALFA target abundance (FLAG IP / Myc IP barcode read proportion) (log2 ratio); each designed protein is fused to an ALFA-tag nanobody in HEK293 cells to bring the named protein to FLAG-tagged glucokinase (GCK); Myc marks an untargeted standard; higher = target protein stabilised (more abundant); conditions: target protein: 3xFLAG-MCP-GCK-ALFA reporter; HEK293 landing pad (RPLP)
Method in brief: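 An ALFA-nanobody-fused binder library was recombined into HEK293 landing-pad cells and induced with 2 μg mL^−1 doxycycline. Cells were transfected with a plasmid expressing a FLAG-tagged target and a Myc-tagged standard. After 48 h, lysates underwent anti-FLAG and anti-Myc immunoprecipitation, and circular RNA barcodes were reverse transcribed, amplified and sequenced. Target abundance is the per-binder median log2 ratio of FLAG to Myc barcode read proportions. Barcodes needed ≥10^−7 proportion in both replicates, binders ≥3 barcodes per replicate, and a 10^−6 pseudocount was added; the two replicates were pooled.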

Chain of GABARAP, O95166 (O95166 whole entry, the tested form may be a part): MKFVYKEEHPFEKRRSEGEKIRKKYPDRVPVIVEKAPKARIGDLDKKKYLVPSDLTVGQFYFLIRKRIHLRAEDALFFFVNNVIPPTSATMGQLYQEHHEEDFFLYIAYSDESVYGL

Binder	median log2 fold change
B1	0.261
B2	0.21
B3	-0.179
B4	0.341
B5	0.172
B6	-0.254
B7	0.228
B8	0.286
B9	0.296
B10	-0.249
B11	-0.117
B12	0.163
B13	-0.0267
B14	-0.103
B15	0.285
B16	0.0679
B17	0.0293
B18	0.0876
B19	0.0318
B20	0.186
B21	-0.0974
B22	0.174
B23	0.199
B24	-0.0241
B25	0.305
B26	-0.134
B27	0.201
B28	0.11
B29	0.182
